According to PubChem BioAssay AID686979 (National Center for Advancing Translational Sciences (NCATS), 2013):
Where “and” joins values, the source holds several entries; their conditions need not be identical. Identical values can stand only once. Out of some 420,000 compounds screened, about 50,000 (12%) were called active. Inconclusive means that the source gave no clear call. Such entries were picked first, then a sample of the others. Calls come from the whole dose curve; as a rule, active = well fitted inhibition curve with a large enough effect; inconclusive = small, poorly fitted or top-dose-only effect; inactive = flat fitted curve, though single readings scatter. Potencies beside an inconclusive call are fits to weak or partial responses and may not hold up.

assay: qHTS for Inhibitors of human tyrosyl-DNA phosphodiesterase 1 (TDP1): qHTS in cells in presence of CPT; details: chicken DT40 Tdp1-/-;hTDP1 cells + 20 nM CPT, ATP luminescence, 48 h; series mostly up to 46.2 µM; note: nearly all actives have a fitted effect of over 55% in size
How it was run: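 Chicken DT40 Tdp1-/- cells complemented with human TDP1, 400 cells/well, exposed to compounds plus 20 nM camptothecin for at least 48 h at 37 C; viability read as ATP content by CellTiter-Glo luminescence.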
Potency is the fitted concentration of half-maximal effect; tags give direction and shape of the fitted curve.

SMILES | Potency
Nc1nc(NCCCN2CCOCC2)nc(Nc2cccc(F)c2)c1[N+](=O)[O-] | inconclusive: 29.1 µM [inhibitor, single point]
CC1Cc2ccccc2N1C(=O)Cn1nnc(-c2ccccc2NC(=O)C2CCC2)n1 (centres undefined) | inconclusive: 18.4 µM [inhibitor, single point]
O=S(=O)(c1ccc2c(c1)CCCC2)N1CCN(c2nc(-c3cccs3)nc3ccccc23)CC1 | inconclusive: 35.5 µM [inhibitor, single point]
O=C(COc1ccc(S(=O)(=O)N2CCOCC2)cc1)NCCN1CCOCC1 | inactive
CC(Oc1ccc(Cl)cc1Cl)C(=O)N/N=C1\CCCc2ccccc21 (centres undefined) | inconclusive: 29.1 µM [inhibitor, single point]
CN1C(=O)[C@@](O)(c2cn(C)c3ccccc23)c2cc(Br)ccc21 | inconclusive: 29.1 µM [inhibitor, single point]
COc1ccc(Nc2nc(N)c([N+](=O)[O-])c(N3CCCC3)n2)cc1 | inconclusive: 23.1 µM [inhibitor, single point]
O=C(NCc1ccc2c(c1)OCO2)C(=O)NCC1OCCN1S(=O)(=O)c1ccc(Br)cc1 (centres undefined) | inconclusive: 29.1 µM [inhibitor, single point]
CC1CCCC(NC(=O)COC(=O)c2ccccc2C(=O)N(C)C2CCCCC2)C1C (centres undefined) | active: 23.1 µM
CCOc1ccccc1-c1c2cc(O)c(=O)cc-2oc2cc(O)c(O)cc12 | active: 23.1 µM
O=C(CC(SCc1ccco1)c1ccc(O)cc1)c1cccs1 (centres undefined) | inconclusive: 18.4 µM [inhibitor, single point]
CC1CCN(C(=O)C2CCC(=O)N(Cc3ccc(Cl)cc3)C2)CC1 (centres undefined) | inactive
COC(=O)c1cc2c(ccn2-c2ccc(F)cc2)n1CC(=O)C(C)(C)C | inconclusive: 18.4 µM [inhibitor, single point]
Cc1nc2sc3c(c2c(=N)n1N)CC(C)(C)OC3 | inactive
CCn1c(SCC(=O)NC(=O)NC(C)(C)C)nc2ccccc21 | inconclusive: 29.1 µM [inhibitor, single point]
COCCN(Cc1cn[nH]c1-c1ccc2cc(OC)ccc2c1)C(C)C | inactive
CCOc1ccc2nc(NC(=O)C3(C)CC3(Br)Br)sc2c1 (centres undefined) | active: 16.4 µM
O=C(/C=C/c1ccc(Cl)cc1)Nc1cc(S(=O)(=O)N2CCOCC2)ccc1N1CCOCC1 | inconclusive: 29.1 µM [inhibitor, single point]
CCc1cc2c(=O)n(Cc3ccccc3)c(SC3CCOC3=O)nc2s1 (centres undefined) | inconclusive: 29.1 µM [inhibitor, single point]
COc1ccc(C(C)C)cc1S(=O)(=O)NCCc1c(C)[nH]c2ccc(C)cc12 | inconclusive: 23.1 µM [inhibitor, single point]
COc1ccc(/C=C/C(=O)N(C(C)C)C(C)C)cc1Br | inconclusive: 12.6 µM [inhibitor, partial curve, poor fit]
CC(C)(C)OC(=O)N1CCC(c2c(C(=O)N3CCc4ccccc4C3)cnn2-c2ccc(F)cc2)CC1 | inconclusive: 29.1 µM [inhibitor, single point]
CCC(=O)Nc1ccc(/C(C)=N/NC(=O)c2c(Br)c(C)nn2C)cc1 | inconclusive: 20.6 µM [inhibitor, single point]

SMILES | Potency
CCN1C[C@@H]2[C@@H]3C(=O)N(C)C(=O)[C@@H]3[C@](Cc3ccccc3)(C1=O)N2C(=O)c1ccc(C(C)(C)C)cc1 | inactive
Cc1ccccc1OCCn1c(CCNC(=O)C(C)(C)C)nc2ccccc21 | inconclusive: 29.1 µM [inhibitor, single point]
CC(=O)Nc1ccc(C(=O)OCC(=O)NCc2ccccc2)cc1 | inconclusive: 23.1 µM [inhibitor, single point]
CCc1ccc(CNC(=O)c2ccc(-c3nc(CS(=O)(=O)c4ccccc4)c(C)o3)cc2)cc1 | active: 14.6 µM
COC(=O)c1ccc2nc(C(C)(C)C)c(Cc3ccc(OC)cc3C)n2c1 | inactive
CCCC(=O)NCCCc1nc2ccccc2n1CC | inconclusive: 32.6 µM [inhibitor, single point]
Cc1ccccc1N1CCN(C(=O)[C@@H]2CCCN2C2=NS(=O)(=O)c3ccccc32)CC1 | inconclusive: 29.1 µM [inhibitor, single point]
Cc1c(C(=O)Nc2cnccn2)oc2ccccc12 | active: 11.6 µM
Cc1coc2c(C)c3oc(=O)c(CCC(=O)NCCc4ccc(Cl)cc4)c(C)c3cc12 | inconclusive: 14.6 µM [inhibitor, partial curve, poor fit]
O=C(N/N=C/c1ccc2c(c1)OCO2)c1sc2cccc(Cl)c2c1Cl | inconclusive: 29.1 µM [inhibitor, single point]
Cc1ccccc1Cn1ccc(NC(=O)c2cnn3c2NC(c2ccccc2)CC3C(F)(F)F)n1 (centres undefined) | inconclusive: 29.1 µM [inhibitor, single point]
O=C1N[C@@H](c2ccccc2)COC(=O)[C@@H](Cc2ccc(F)cc2)CC/C=C/C[C@@H]1CC(=O)N(CCO)Cc1ccccc1 | active: 13 µM
CC(=O)CSc1nc(N)c(C#N)c(-c2cccs2)c1C#N | active: 20.6 µM
CCN1CCN(CCCOc2ccc(Cl)cc2Br)CC1 | inconclusive: 25.9 µM [inhibitor, single point]
CCN(C[C@H]1N[C@@](C)(C(=O)OC)[C@H]2C(=O)N(C)C(=O)[C@@H]12)C(=O)C1CCCCC1 | inactive
CCn1c(CSc2nc3ccccc3s2)nnc1SCC(=O)OC(C)(C)C | inconclusive: 31.6 µM [inhibitor, single point]
CCN(CCCNC(=O)c1cc2c(=O)n(CC)c3ccccc3c2s1)c1ccccc1 | inconclusive: 18.4 µM [inhibitor, single point]
CCc1ccc(CNC(=O)CSc2cc(=O)n(C)c3ccc(Cl)cc23)cc1 | active: 23.1 µM
CCOc1ccc(Br)cc1C1=NN(C(C)=O)C(c2ccc([N+](=O)[O-])s2)O1 (centres undefined) | active: 18.4 µM
CC1CN=C2C(C(=O)Nc3ccccc3)=C(O)CC(c3ccccc3)N21 (centres undefined) | inconclusive: 25.9 µM [inhibitor, single point]
N#C/C(=C\c1ccco1)C(=O)Nc1cccc2ncccc12 | inactive
O=C(C[N+]12CN3CN(CN(C3)C1)C2)c1ccc(I)cc1 | inconclusive: 35.5 µM [inhibitor, single point]
COCCCNC(=O)c1c(NC(=O)Cc2coc3cc(C)cc(C)c23)sc2c1CCCC2 | inconclusive: 20.6 µM [inhibitor, single point]

SMILES | Potency
Cc1ccc(C)c(NC(=S)N2CCC(NC(=O)C3CCCCC3)CC2)c1 | inactive
COc1ccc(OC)c(CNC(=O)Cc2ccc(NC(=O)N3CCCCc4ccccc43)cc2)c1 | active: 11.6 µM
COc1cc2c(cc1OC)CN(CC(=O)Nc1ccc(F)cc1)CC2 | inactive
CCc1nc2ccccc2c(C(=O)Nc2ccc(C)cc2)c1C | inactive
CC(C)Cc1csc(NC(=O)c2ccc(F)cc2)c1C(=O)O | inconclusive: 29.1 µM [inhibitor, single point]
Cc1csc(NC(=O)CSc2ccc(-c3ccccn3)nn2)n1 | inconclusive: 20.6 µM [inhibitor, single point]
COc1ccc2[nH]c(C(=O)N/N=C/c3ccc(O)cc3O)cc2c1 | active: 4.61 µM
Cc1ccc(S(=O)(=O)N2CCOCC2)cc1NC(=O)Nc1ccc([N+](=O)[O-])cc1 | inconclusive: 20.6 µM [inhibitor, single point]
O=C(Nc1ccncc1)c1cncc(Br)c1 | inactive
C/C(=N\NC(=O)c1cccc(S(=O)(=O)Nc2cccc(Cl)c2)c1)c1cccs1 | inconclusive: 29.1 µM [inhibitor, single point]
CCCCC[C@H](C)N1C[C@@H](COCc2ccccc2)Oc2cc(N3CCC[C@@H]3COC)ccc2S1(=O)=O | active: 20.6 µM
O=C(c1ccc2c(c1)N(Cc1ccccc1F)C(=O)c1ccccc1S2(=O)=O)N1CCCC1 | inconclusive: 16.4 µM [inhibitor, partial curve] and inconclusive: 29.1 µM [inhibitor, single point]
COc1ccc(-c2cc(-c3ccccc3)nc(SCC(=O)CC(=O)OC(C)C)c2C#N)cc1 | inconclusive: 29.1 µM [inhibitor, single point]
CC1(C)SC(=S)N(NC(=O)Nc2cccc3ccccc23)C1N(O)C(=O)Nc1ccccc1 (centres undefined) | inconclusive: 23.1 µM [inhibitor, single point]
COc1ccc(NC(=O)CN(C)C(=O)c2cc(-c3cccs3)nn2-c2ccccc2)cc1 | inconclusive: 23.1 µM [inhibitor, single point]
O=C(NCc1ccccn1)c1ccc(-c2ccccc2)cc1 | inactive
Cc1ccc(-c2onc3ccc(C4(C)OCCO4)cc23)cc1 | inactive
CC(NC(=O)CCSCc1ccccc1F)c1ccccc1 (centres undefined) | inactive
COc1ccccc1CN1CCNC(=O)C1CC(=O)N(C)CC1CCOCC1 (centres undefined) | inactive
O=C(c1ccccc1F)N1CCCC(N2CCN(Cc3ccc4c(c3)OCO4)CC2)C1 (centres undefined) | inconclusive: 18.4 µM [inhibitor, single point]
Oc1c(CN2CCOCC2)cc(CN2CCOCC2)c(O)c1O | active: 18.4 µM
Cc1cc(F)ccc1NCc1ccccc1-c1nnc(-c2ccccc2Cl)o1 | inconclusive: 20.6 µM [inhibitor, single point]
COc1cc(=O)n2c(c1C(=O)NC(C)c1ccco1)CCN(C(=O)c1ccccc1SC)CC2 (centres undefined) | inactive
